Laboratory results reported in ChEMBL document CHEMBL4888484, “Replenishing the malaria drug discovery pipeline: Screening and hit evaluation of the MMV Hit Generation Library 1 (HGL1) against asexual blood stage Plasmodium falciparum ,using a nano luciferase reporter read-out” (2022).
Out of some 150,000 compounds screened, about 540 (0.36%) showed an effect of 50% or more. This is one part of the list.

These compounds were tested on Plasmodium falciparum (assay: Primary screen in NF54 nanoGlo assay, in single point, at 2uM, 72h; a lower Z score goes with more inhibition). Conditions: timepoint 72 hour.
Assay type: functional, Erythrocyte

In order of falling “% Inhibition” value:
1. C[C@@H](NC(=O)c1ccccc1F)c1ccccc1  42%
2. Cc1cc(C(=O)Nc2ccc([C@H]3OCC(=O)N(C(C)C)[C@@H]3CO)cc2)nn1C  33%
3. CC[C@@H](CO)N1CCN(S(=O)(=O)c2cccc(NC(=O)c3oc(C)nc3C)c2)CC1  11%
4. Cc1ccc(COc2cccc(CNCc3cccnc3)c2)cc1  10%
5. Nc1c(Br)cncc1C(=O)O  8%
6. C[C@H](NCc1cccc(-c2cccnc2)c1)c1cccc(O)c1  6%
7. Cc1ccc2nc(-c3ccc(Cl)cc3)cc(C(=O)Oc3ccc(C)c(C)c3)c2c1  6%
8. CCC1CCCC(CNCC2(S(C)(=O)=O)CCOCC2)C1 (stereo not drawn)  5%
9. c1ccc(-c2coc(CNCCc3nnc4n3CCC4)c2)cc1  3%
10. CN1CCN(c2c(F)cc(C(=O)Nc3nc(-c4ccccc4)cs3)c(F)c2F)CC1  3%
11. O=C(CCCc1nnc2ccccn12)Nc1nc(CCC2CCCC2)n[nH]1  3%
12. O=C(O)[C@@H]1CC2(CCN(C(=O)c3cc(Cl)ccc3F)CC2)CN1  1%
13. C[C@H]1CN(Cc2ccc3c4c(cccc24)C(=O)OC3)CCN1  1%
14. Cc1ncc(CNS(=O)(=O)CC2(C)CCCCC2)o1  0%
15. Cc1cnc(C)c(-c2ccc(C(=O)N3CCN(c4cnccn4)CC3)cc2)n1  -1%
16. O=C(CCC1CCCC1)N1CCC(c2c(CO)cnn2-c2ccccc2)CC1  -1%
17. CCC(CC)C(=O)N1CC[C@H](N(CCN2CCOCC2)S(C)(=O)=O)C1  -2%
18. COCc1cccc(C(=O)Nc2ccc(-n3ccnc3)cc2)c1  -3%
19. CCCc1ccc(CN(CC)CCn2cccn2)o1  -3%
20. CNC(=O)CN1CCC(CN(C)c2nnc(C(C)(C)C)s2)CC1  -4%
21. OCCN(CCO)Cc1c[nH]nc1-c1cccc2ccccc12  -4%
22. CCc1ccc(CNC(=O)[C@@H]2CCCCC(=O)N2C)cc1  -4%
23. Nc1cc(N2CCC3(CC2)C[C@@H](c2ccccc2)C(=O)N(C2CC2)C3)ncn1  -5%
24. COc1cc(C(=O)NCCNC(=O)c2nc(-c3ccc(F)cc3)no2)cc(OC)c1OC  -5%
25. CC(C)Oc1cc(N[C@H]2CCN(C(=O)c3ccccn3)C[C@@H]2O)nc(N)n1  -5%
26. CC(=O)Nc1ccc2c(c1)cc(C(=O)Nc1ccccc1)n2Cc1cccc(F)c1  -5%
27. CC(C)c1cc(CN2CCC[C@H]2c2nccs2)no1  -6%
28. O=C(NCC(F)(F)F)N1CCC[C@H]1c1nnc2ccccn12  -6%
29. O=C(Cc1ccco1)NC1CC(NCC(F)(F)F)C1 (stereo not drawn)  -6%
30. CC12CCC(C(=O)Nc3ncc(Cl)cc3Cl)(CC1O)C2(C)C (stereo not drawn)  -7%
31. Cc1cc(F)c(C(=O)NC[C@H](Cc2cnn(C)c2)C(N)=O)cc1F  -7%
32. COc1ccsc1C(=O)NCCc1ccc2c(c1)OCO2  -7%
33. Cc1nc(CC(C)C)cc(C(=O)NCc2csc(C)n2)n1  -7%
34. FC(F)(F)c1ccccc1C1(NCc2ccc3cn[nH]c3c2)CC1  -8%
35. CCc1cc2c(NCc3nccc(C(F)(F)F)n3)ncnc2s1  -8%
36. O=C(NCC1(CCO)CC1)c1ncoc1C(F)(F)F  -8%
37. O=S(=O)(NCCCOCc1ccco1)N1CCCCC1  -8%
38. CCCOc1ccccc1[C@H](C)Nc1nnc(C2CC2)o1  -8%
39. Cc1csc(Cn2ccc(-c3cccc(-c4nc(C)cnc4C)c3)n2)n1  -9%
40. COCC1(c2noc([C@@]34CCCC[C@@H]3NCC4)n2)CCCC1  -9%
41. Cc1cccc(CN2CCC[C@@](O)(CN3CCN(CC4CC4)CC3)C2=O)c1  -10%
42. CNC(=O)c1cccc(C(=O)N2CC[S+]([O-])CC(C)C2)c1 (stereo not drawn)  -10%
43. Cc1c(Cl)cccc1N1C(=O)[C@H]2[C@@H](C1=O)[C@]1(C(=O)Nc3ccccc31)N1CCC[C@@H]21  -10%
44. CC(C)c1cc([C@@H]2CCCN2C(=O)c2ccco2)on1  -10%
45. Cc1nc(-c2cccc(CNc3cc(C(C)C)nc4ncnn34)c2)cs1  -11%
46. O=C(NCc1cccnc1)N(Cc1cccc(O)c1)CC1CC1  -12%
47. O=C(CN1C(=O)c2cc(Cl)c(Cl)cc2C1=O)Nc1cccc(S(=O)(=O)N2CCCC2)c1  -13%
48. Cc1nc2ccccn2c1CN1CCN(Cc2ccccc2F)C(=O)C1  -13%
49. CCOC1CC(NC(C(N)=O)c2ccccc2)C1(C)C (stereo not drawn)  -16%
50. O=C(CC1CCCC1)NC1CCN(C(=O)c2ccc3[nH]nnc3c2)CC1  -17%
51. CN(C)[C@H]1CCCN(c2cc(C3CC3)ncn2)CC1  -19%
52. CC[C@H](C)N(CC(=O)O)Cc1nc(CCC(C)C)no1  -20%
53. Cc1nnc(-c2cccc(NC(=O)[C@@H]3CCCCN3Cc3nc[nH]c3C)c2)s1  -23%
54. Cc1oc(C)c(C(=O)Nc2nc(-c3cccc(-n4cnnn4)c3)cs2)c1Br  -42%

In order of falling Z score:
1. Cc1oc(C)c(C(=O)Nc2nc(-c3cccc(-n4cnnn4)c3)cs2)c1Br  4.87
2. Cc1nnc(-c2cccc(NC(=O)[C@@H]3CCCCN3Cc3nc[nH]c3C)c2)s1  3.06
3. CC[C@H](C)N(CC(=O)O)Cc1nc(CCC(C)C)no1  2.66
4. Cc1nc2ccccn2c1CN1CCN(Cc2ccccc2F)C(=O)C1  2.64
5. O=C(CC1CCCC1)NC1CCN(C(=O)c2ccc3[nH]nnc3c2)CC1  2.43
6. CN(C)[C@H]1CCCN(c2cc(C3CC3)ncn2)CC1  2.02
7. CNC(=O)c1cccc(C(=O)N2CC[S+]([O-])CC(C)C2)c1 (stereo not drawn)  1.83
8. Cc1nc(-c2cccc(CNc3cc(C(C)C)nc4ncnn34)c2)cs1  1.73
9. O=C(NCc1cccnc1)N(Cc1cccc(O)c1)CC1CC1  1.66
10. CCOC1CC(NC(C(N)=O)c2ccccc2)C1(C)C (stereo not drawn)  1.58
11. Cc1nc(CC(C)C)cc(C(=O)NCc2csc(C)n2)n1  1.47
12. CC(C)c1cc([C@@H]2CCCN2C(=O)c2ccco2)on1  1.28
13. O=C(CN1C(=O)c2cc(Cl)c(Cl)cc2C1=O)Nc1cccc(S(=O)(=O)N2CCCC2)c1  1.26
14. Cc1c(Cl)cccc1N1C(=O)[C@H]2[C@@H](C1=O)[C@]1(C(=O)Nc3ccccc31)N1CCC[C@@H]21  1.25
15. COCC1(c2noc([C@@]34CCCC[C@@H]3NCC4)n2)CCCC1  1.25
16. CCc1cc2c(NCc3nccc(C(F)(F)F)n3)ncnc2s1  1.24
17. Cc1csc(Cn2ccc(-c3cccc(-c4nc(C)cnc4C)c3)n2)n1  1.19
18. Nc1cc(N2CCC3(CC2)C[C@@H](c2ccccc2)C(=O)N(C2CC2)C3)ncn1  1.14
19. COc1ccsc1C(=O)NCCc1ccc2c(c1)OCO2  1.14
20. CCCOc1ccccc1[C@H](C)Nc1nnc(C2CC2)o1  1.12
21. CC(C)c1cc(CN2CCC[C@H]2c2nccs2)no1  1.1
22. Cc1cccc(CN2CCC[C@@](O)(CN3CCN(CC4CC4)CC3)C2=O)c1  1.1
23. O=C(NCC1(CCO)CC1)c1ncoc1C(F)(F)F  1.09
24. O=S(=O)(NCCCOCc1ccco1)N1CCCCC1  1.08
25. FC(F)(F)c1ccccc1C1(NCc2ccc3cn[nH]c3c2)CC1  1.05
26. CC12CCC(C(=O)Nc3ncc(Cl)cc3Cl)(CC1O)C2(C)C (stereo not drawn)  0.95
27. CC(=O)Nc1ccc2c(c1)cc(C(=O)Nc1ccccc1)n2Cc1cccc(F)c1  0.93
28. O=C(NCC(F)(F)F)N1CCC[C@H]1c1nnc2ccccn12  0.88
29. CC(C)Oc1cc(N[C@H]2CCN(C(=O)c3ccccn3)C[C@@H]2O)nc(N)n1  0.86
30. Cc1cc(F)c(C(=O)NC[C@H](Cc2cnn(C)c2)C(N)=O)cc1F  0.72
31. O=C(Cc1ccco1)NC1CC(NCC(F)(F)F)C1 (stereo not drawn)  0.64
32. COc1cc(C(=O)NCCNC(=O)c2nc(-c3ccc(F)cc3)no2)cc(OC)c1OC  0.62
33. CCCc1ccc(CN(CC)CCn2cccn2)o1  0.62
34. OCCN(CCO)Cc1c[nH]nc1-c1cccc2ccccc12  0.56
35. CCc1ccc(CNC(=O)[C@@H]2CCCCC(=O)N2C)cc1  0.51
36. COCc1cccc(C(=O)Nc2ccc(-n3ccnc3)cc2)c1  0.34
37. CNC(=O)CN1CCC(CN(C)c2nnc(C(C)(C)C)s2)CC1  0.34
38. CCC(CC)C(=O)N1CC[C@H](N(CCN2CCOCC2)S(C)(=O)=O)C1  0.25
39. Cc1cnc(C)c(-c2ccc(C(=O)N3CCN(c4cnccn4)CC3)cc2)n1  0.22
40. O=C(CCC1CCCC1)N1CCC(c2c(CO)cnn2-c2ccccc2)CC1  0.07
41. Cc1ncc(CNS(=O)(=O)CC2(C)CCCCC2)o1  0.05
42. O=C(O)[C@@H]1CC2(CCN(C(=O)c3cc(Cl)ccc3F)CC2)CN1  -0.23
43. C[C@H]1CN(Cc2ccc3c4c(cccc24)C(=O)OC3)CCN1  -0.26
44. CN1CCN(c2c(F)cc(C(=O)Nc3nc(-c4ccccc4)cs3)c(F)c2F)CC1  -0.36
45. O=C(CCCc1nnc2ccccn12)Nc1nc(CCC2CCCC2)n[nH]1  -0.37
46. CCC1CCCC(CNCC2(S(C)(=O)=O)CCOCC2)C1 (stereo not drawn)  -0.44
47. C[C@H](NCc1cccc(-c2cccnc2)c1)c1cccc(O)c1  -0.54
48. c1ccc(-c2coc(CNCCc3nnc4n3CCC4)c2)cc1  -0.64
49. Cc1ccc2nc(-c3ccc(Cl)cc3)cc(C(=O)Oc3ccc(C)c(C)c3)c2c1  -0.72
50. Nc1c(Br)cncc1C(=O)O  -0.96
51. Cc1ccc(COc2cccc(CNCc3cccnc3)c2)cc1  -1.43
52. CC[C@@H](CO)N1CCN(S(=O)(=O)c2cccc(NC(=O)c3oc(C)nc3C)c2)CC1  -1.47
53. C[C@@H](NC(=O)c1ccccc1F)c1ccccc1  -1.57
54. Cc1cc(C(=O)Nc2ccc([C@H]3OCC(=O)N(C(C)C)[C@@H]3CO)cc2)nn1C  -3.7
